Hit rate of the full screen: of about 71,000 compounds, about 1,800 (2.5%) were called active. The inconclusive results got no clear call from the source; some entries with a clear call stand among them for comparison. Calls come from the whole dose curve; as a rule, active = well fitted activation curve with a large enough effect in the signal ratio, with a control signal flat (not every such curve was filed as active); inconclusive = small, poorly fitted or top-dose-only effect, or effect the other way, or a change in a side signal; inactive = flat fitted curve, though single readings scatter; the % refers to the signal ratio. A potency beside an inconclusive call is a rough fit, not a confirmed value.
Test: Cell signaling CRE-BLA (Fsk stim); for activity change, negative = inhibition: % of control where 0% means no effect
Conditions: CHO CRE-bla reporter (cAMP response element driving beta-lactamase), forskolin EC10, beta-lactamase ratio; activity change, negative = inhibition: at 38.2 µM (top of the series) unless noted
How it was run: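 qHTS titration format; CRE-bla CHO reporter; stimulus EC10 NKH 477, a water-soluble forskolin. Read: CCF4 460/530 nm ratio. Potency expressed as AC50 for activators or inhibitors.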
Potency is the fitted concentration of half-maximal effect; tags give direction and shape of the fitted curve.

Structure (SMILES)	activity change, negative = inhibition	Potency
Cc1cc(N=Cc2cc(Br)ccc2O)no1	inconclusive: 12.5% [at 7.6 µM]	–
O=C(c1ccco1)N1C(=O)c2cccc3cccc1c23	inconclusive: 15.2%	–
COc1ccc(COC(=O)c2nc3nc(C)cc(C)n3n2)cc1F	–	inconclusive: 12.6 µM [rising, single point]
Nc1c(Sc2ccccc2)c(=O)[nH]c(=O)n1Cc1ccccc1	–	inconclusive: 3.16 µM [falling, single point]
O=C(c1ccccc1Cl)N1CCN(c2ccccn2)CC1	inactive	–
O=C(CN1C(=O)C2CC=CCC2C1=O)Nc1nc2ccccc2[nH]1 (centres undefined)	–	inconclusive: 15.8 µM [rising, single point]
CCN(CC)CCCNC(=O)c1cn(CCOC)c(=O)c2c1c1ccccc1n2C	–	inconclusive: 3.16 µM [rising, single point]
O=c1c2ccccc2nc2c3ccccc3ncn12	inactive	–
COc1cc2[nH]c3c(N4CCN(c5ccc(Cl)cc5)CC4)ncnc3c2cc1OC	inconclusive: 27.7%	–
O=S(=O)(Cc1ccccc1)NCc1ccccn1	inconclusive: 14.7%	–
COCCn1c(=O)c(-c2cccc(C#N)c2)nc2cnc(N3CCN(C)CC3)nc21	–	active: 12.6 µM
COc1ccc2[nH]c(=O)c(CN(CC3CCCO3)C(=O)Nc3ccccc3OC)cc2c1 (centres undefined)	–	inconclusive: 12.6 µM [rising, single point]
O=C(NCc1ccco1)c1cccc(NC(=O)c2ccccc2)c1	–	inconclusive: 0.631 µM [falling, full curve]
CC(c1ccccc1)n1cc(C(=O)NCc2ccncc2)nn1 (centres undefined)	inactive	–
C=CCn1cnc2c(c1=O)c1nc3ccccc3nc1n2/N=C/c1cccc(OC)c1OC	–	inconclusive: 2.51 µM [rising, partial curve]
COc1ccc(Cc2nnc(NC(=O)c3ccco3)s2)cc1OC	–	inconclusive: 12.6 µM [rising, single point]
O=C(CSc1ncn[nH]1)Nc1ccc(Br)cc1F	inactive	–
CCC(=O)Nc1nc(C)c(C(=O)N2CCCCC2)s1	inconclusive: 17.8% [cytotoxic]	–
Cc1ccc2[nH]c(=O)c(CN(Cc3cccs3)Cc3nnnn3Cc3ccccc3)cc2c1	inconclusive: -5.55%	–
CCCCN(CCCC)C(=O)CCS(=O)(=O)c1ccc2c(c1)n(C)c(=O)c(=O)n2C	inconclusive: 6.03%	–
Clc1ccc(SCCn2cncn2)cc1	inconclusive: -7.36%	–
COc1ccc(C(=O)N2CCC3(CCCN(CC(C)C)C3)CC2)cc1	inactive	–
CC(=O)N1CCc2cc(S(=O)(=O)NCCC(=O)Nc3cccc(C)c3C)ccc21	inactive	–
CCOc1ccc(C(C)=O)cc1COC(=O)C1=COCCO1	–	inconclusive: 5.01 µM [falling, single point]
CCOc1cc(C(=O)NCc2nnc(SCC(=O)OC)n2C)cc(OCC)c1OCC	inconclusive: 21.2%	–
CCN1CCN(Cc2cc(=O)oc3cc(C)cc(C)c23)CC1	inactive	–
COC(=O)Cc1c(C)nc2nc(-c3ccc(OC)cc3)[nH]n2c1=O	inactive	–

Structure (SMILES)	activity change, negative = inhibition	Potency
Oc1ccccc1C1=Nc2ccccc2N=C(c2ccco2)C1	inconclusive: -16.1%	–
COc1ccc(OC)c(N)c1	inconclusive: 8.38%	–
COc1ccccc1-c1ccc2ncnc(NC3CC3)c2c1	–	inconclusive: 10 µM [rising, partial curve]
O=C(O)CCCNc1cc(N2CCC3(CC2)OCCO3)c2noc3c2c1C(=O)c1ccccc1-3	–	active: 10 µM
CCOc1ccccc1NC(=O)N1CCCC(c2nc3c(nnn3Cc3ccc(C)cc3)c(=O)[nH]2)C1 (centres undefined)	inconclusive: 28.6%	–
N#Cc1nc(COc2ccc(Cl)cc2Cl)oc1N1CCOCC1	–	inconclusive: 1 µM [rising, partial curve]
CCOC(=O)Oc1c(OC)cc(C(=O)O[C@H]2C[C@H]3CN4CCc5c([nH]c6cc(OC)ccc56)[C@@H]4C[C@H]3[C@@H](C(=O)OC)[C@@H]2OC)cc1OC	inconclusive: 13% [at 17.1 µM]	–
COc1ccc(NC(=O)N2CC3(CCN(C(=O)c4c(C)noc4C)CC3)C2)cc1	inactive	–
Cc1c(C(=O)c2no[n+]([O-])c2C(=O)c2cnn(C)c2C)cnn1C	inconclusive: -12%	–
CC(=O)N[C@H](Cc1ccc(O)cc1)C(=O)O	inactive: 14.8% [at 7.6 µM]	–
COc1ccc2[nH]cc(CCNc3ccnc(-c4ccc(C(=O)N(C)C)cc4)n3)c2c1	–	active: 2.51 µM
O=C(Nc1cccc(F)c1)N1CCC2(CC1)CCN(C(=O)c1csnn1)CC2	inactive	–
CC(C)OC(=O)c1c(N)sc2c1CCCC2	inactive	–
COC(=O)[C@@]1(Cc2ccccc2)[C@H]2c3cc(C(=O)N(C)C)n(Cc4cc(F)c(F)c(F)c4)c3C[C@H]2CN1C(=O)c1ccccc1	inactive	–
CCSc1ncc(Cl)c(C(=O)Nc2ccc(S(=O)(=O)Nc3onc(C)c3C)cc2)n1	–	inconclusive: 10 µM [rising, single point]
CCCCn1c(=NC(=O)c2ccco2)c(C(=O)OCC)cc2c(=O)n3ccccc3nc21	–	inconclusive: 10 µM [rising, partial curve]
COC(=O)c1c(C(=O)OC)c(C)n(Cc2cccnc2)c1C	inactive	–
Cc1ccc2[nH]c3nc(SCCN4CCOCC4)nnc3c2c1	inactive	–
CC1CN(C(=O)CN2C(=O)NC3(CCCCCCC3)C2=O)CC(C)O1 (centres undefined)	–	inconclusive: 5.01 µM [falling, single point]
CCCn1c(SCC(=O)Nc2ccccc2C(=O)OC)nc2c1c(=O)n(C)c(=O)n2C	inactive	–
COc1ccc(NC(=O)C2CCCN2C(=O)NC2CCCCC2)cc1OC (centres undefined)	inconclusive: -4.17%	–
Cc1nc2cnc(N3CCNCC3)nc2n(Cc2ccc(F)cc2)c1=O	–	inconclusive: 20 µM [rising, single point]
CCOC(=O)c1cn(CC(=O)Nc2ccccc2C(=O)OCC)nn1	inconclusive: 23.1%	–
COc1ccc2c3c([nH]c2c1)[C@@H]1C[C@@H]2[C@@H](C[C@H](O)[C@H](OC)[C@H]2C(=O)O)CN1CC3	inactive	–
CCOC(=O)c1[nH]c2ccc(F)cc2c1NC(=O)c1cc(OC)c(OC)c(OC)c1	–	active: 6.31 µM
O=c1c(-c2ccc(F)c(F)c2)nc2cncnc2n1-c1ccccc1	–	inconclusive: 10 µM [rising, partial curve]
NC(N)=NC(N)=Nc1c(F)c(F)c(F)c(F)c1F	inactive: 7.73% [at 7.6 µM]	–

Structure (SMILES)	activity change, negative = inhibition	Potency
CCCCCCNC(=O)Cc1nc2nc(C)cc(C)n2n1	inconclusive: -6.71%	–
O=C(c1ccc(F)cc1)c1ccc(N2CCCC2)cc1	–	inconclusive: 12.6 µM [rising, partial curve]
Cn1c2ccccc2c2ncn(CCCN3CCOCC3)c(=O)c21	–	inconclusive: 12.6 µM [rising, single point]
CCN(Cc1cc2cc(OC)ccc2[nH]c1=O)C(=O)Cc1ccc(OC)cc1	inconclusive: 6.71%	–
c1ccc(-n2ncc3c2ncn2nc(-c4ccco4)nc32)cc1	inconclusive: 20.6%	–
CCCn1nc(C(=O)N2CC(=O)Nc3ccccc32)c2ccccc2c1=O	–	inconclusive: 10 µM [rising, single point]
COc1cccc(Cn2c(=O)c(-c3cc(F)cc(F)c3)nc3cnc(N4CCN(C)CC4)nc32)c1	–	inconclusive: 2.51 µM [rising, full curve]
Cc1ccc2[nH]c(=O)c(CN(Cc3ccco3)C(=O)c3ccncc3)cc2c1	inactive	–
[O-]/[N+](=C\c1ccccc1)[C@@H]1CCCC[C@@H]1/[N+]([O-])=C/c1ccccc1	inconclusive: 8.82%	–
Cc1ccc(C)c(-n2nnnc2Sc2nnnn2-c2ccccc2)c1	–	inconclusive: 10 µM [falling, partial curve]
Clc1cccc(-c2nnc(-c3ccccc3)o2)c1	inactive	–
CN(C)[C@H]1C(=O)C(C(=O)NCN2CCCC2)=C(O)[C@]2(O)C(=O)C3=C(O)c4c(O)cccc4[C@](C)(O)[C@H]3C[C@H]12	inactive: -2.59% [at 7.6 µM]	–
C/C(N)=C(/C#N)C(=O)CSc1nnc(SCc2ccc(Cl)cc2)s1	inactive	–
COc1ccc2[nH]cc(CCNc3nc(-c4ccc(C(=O)N(C)C)cc4)nc4ccccc34)c2c1	–	active: 0.316 µM
CC1(C)N([O-])C(c2ccccc2)=C[N+](=O)C1(C)C	inconclusive: 6.69%	–
CC(NS(=O)(=O)c1ccc(CCC(=O)N2CCN(C)CC2)cc1)c1ccccc1 (centres undefined)	inconclusive: 14.2%	–
COc1ccc2c(c1)c1c(n2C(C)=O)C(OC(C)=O)=NCC1	–	inconclusive: 10 µM [rising, partial curve]
Fc1ccc(Nc2nc(N3CCOCC3)c3ccccc3n2)cc1	–	inconclusive: 5.01 µM [falling, single point]
COc1ccc(-n2c(SCC(=O)Nc3cc(C)on3)nc3ccc(O)cc3c2=O)cc1OC	inconclusive: 24.7%	–
COc1cccc(Nc2ncc3ncc(=O)n(CCc4ccccc4)c3n2)c1	–	inconclusive: 10 µM [rising, partial curve]
FC(F)(F)c1ccccc1-c1nccc(NCCN2CCOCC2)n1	inconclusive: 1.92%	–
Nc1nonc1-c1nc2ccccc2n1CC(=O)NC1CCCC1	inconclusive: -4.63%	–
O=C1CCCN1CCCn1cnc2c([nH]c3ccc(F)cc32)c1=O	inconclusive: 23.9%	–
Cc1cc(C(F)(F)F)c(C#N)c(SCC(=O)NC(C)(C)C)n1	inactive	–
Cc1cc(NC(=O)CCC(=O)N(c2ccc(F)cc2)C(C(=O)NC2CCCC2)c2ccncc2)no1 (centres undefined)	inactive	–

From PubChem BioAssay AID662 (National Center for Advancing Translational Sciences (NCATS), 2007)
